The values below come from the supplement of paper PMC11417369.

± gives the standard deviation of the averaged measurements. The list shows a part of the results.

The test concerns PfAP2-EXP AP2 domain (GST-tagged). The test can be described thus: gcPBM binding intensity (ln(normalized median fluorescence intensity)); higher = stronger DNA binding. The method in brief:
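Binding intensity is defined as the maximum Masliner-normalised natural-log median intensity across replicate spots for either probe orientation. It was measured on an Agilent 4 × 180k array of primer-extended double-stranded 36-bp intergenic genomic probes and negative controls, to which GST-tagged P. falciparum DNA-binding domains made in E. coli were applied for 1 h in 1× PBS with 1% milk, 0.2 mg/ml BSA, 0.5% salmon testes DNA and 0.03% Triton X-100. Detection was by Alexa488 anti-GST antibody and scanning at 488 nm.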
“CAGATAGACTTATATGCATGCATTCACCTGCCAACA [TGCATGCA_site158]”: the “gcPBM binding intensity (ln)” value is 9.89 ± 0.18.

“ATATTACATAATATATGTACACACGCAAATACTTAT [XGTACX_site671]”: the “gcPBM binding intensity (ln)” value is 8.66 ± 0.33.

Turning to “TAAGCATAAATGTATACATGCGATGCATACACATAT [TGCATGCA_site749]”, the “gcPBM binding intensity (ln)” value was found to be 8.25 ± 0.31.

In the case of “ATGAAATTATATTGGGGTACGTCAAAAAAGGAGATA [XGTACX_site7451]”, the “gcPBM binding intensity (ln)” value turned out to be 9.1 ± 0.45.

“GGGTATATATTATTATGTACACATGTATAAAATAAG [XGTACX_site2633]”: the “gcPBM binding intensity (ln)” value was 8.79 ± 0.21.

For “ATATTAAGAATAAACAGTACATATAATAAATACCAT [XGTACX_site5933]”, the “gcPBM binding intensity (ln)” value came to 8.52 ± 0.085.

As for “AAAAAAAAAAAAATTACACACATACATATAATAATA [CACACA_site8680]”, the “gcPBM binding intensity (ln)” value came to 8.38 ± 0.46.

With “TTTGTGTATATATAATGTACATTATATTTTTATTAT [XGTACX_site6506]”, the “gcPBM binding intensity (ln)” value was 8.85 ± 0.41.

On to “TATATATATGGACACACACACACATATATATATATA [CACACA_site6121]”, for which the “gcPBM binding intensity (ln)” value worked out at 10 ± 0.39.

Turning to “AAAAAAAATATACATACATGCATACATAAGTTTCTA [TGCATGCA_site998]”, the “gcPBM binding intensity (ln)” value was 8.49 ± 0.24.

As for “TATAAATTTATAAATAGTACATATATTTATATATAT [XGTACX_site6433]”, the “gcPBM binding intensity (ln)” value was 8.38 ± 0.25.

For “ATTAAAAAAAAAGAGCGTACAAATAATTACTTCTTT [XGTACX_site8262]”, the “gcPBM binding intensity (ln)” value came out at 8.21 ± 0.21.

Turning to “TATAAAATAAGACATGCATGTTATACATATATATTT [TGCATGCA_site156]”, the “gcPBM binding intensity (ln)” value came to 8.93 ± 0.39.

For “AAACGTATGTTATTTACACACCCTTCCACTTTTATA [CACACA_site3337]”, the “gcPBM binding intensity (ln)” value is 8.53 ± 0.38.

For “ATGTTTTTTATTCTTCGTACGTATGAACGATAGTGT [XGTACX_site4225]”, the “gcPBM binding intensity (ln)” value was determined as 8.89 ± 0.47.

Turning to “CATTATTATTTTATAACACACACATATATATTATAT [CACACA_site8405]”, the “gcPBM binding intensity (ln)” value was found to be 8.48 ± 0.34.

In the case of “ATAAATACATATAAAAGTACACACACACACATATAT [XGTACX_site1744]”, the “gcPBM binding intensity (ln)” value came out at 9.03 ± 0.42.

As to “ATGTGCAAATATTAAAGTACTAAATTTTATTATTTT [XGTACX_site7306]”, the “gcPBM binding intensity (ln)” value was determined as 8.36 ± 0.17.

“TGTATATGTGAAGCAAGGGATGCGGCAGACATAACA [CACACA_negctrl_site1339]”: the “gcPBM binding intensity (ln)” value was 9.26 ± 0.45.

Turning to “TGAAATTTCAATACATGTACATATAAAAAAAAAAAA [XGTACX_site4424]”, the “gcPBM binding intensity (ln)” value is 8.69 ± 0.49.

Regarding “AAATTAAAAAAAAATAAATAAAAAAAAAAAAAAAAT [CACACA_negctrl_site1611]”, the “gcPBM binding intensity (ln)” value amounted to 8.16 ± 0.54.

As to “TTTTTTTTTTCTACAAGTACATATTTTCATTTAACA [XGTACX_site6621]”, the “gcPBM binding intensity (ln)” value amounted to 8.51 ± 0.33.

For “AAAAAAAAAAAAAAATGTACATATATATATTATAAA [XGTACX_site518]”, the “gcPBM binding intensity (ln)” value turned out to be 8.39 ± 0.29.

For the sequence “TAGTATTTATATGATTAACACACATATGGGTATTAA [CACACA_site8363]”, the “gcPBM binding intensity (ln)” value is 8.21 ± 0.33.

As for ATATACACCTGAGAGGTGCATATATATAAAATTTAC, the “gcPBM binding intensity (ln)” value came to 8.66 ± 0.13.

Turning to “AAAAAAAAAAAAAAAAGTACTCAATAATAATTACAT [XGTACX_site670]”, the “gcPBM binding intensity (ln)” value stood at 8.63 ± 0.014.

In the case of “CATAATAGTTATAAAATACACACCAGGCATGATAAA [CACACA_site329]”, the “gcPBM binding intensity (ln)” value worked out at 8.36 ± 0.52.

In the case of “ATAATGTTCACATAGGTGCACTAATATAATTATCCA [GTGCAC_site9981]”, the “gcPBM binding intensity (ln)” value worked out at 9.3 ± 0.38.

As for “CCGTACAATTTTGTCACACATAAAATACTTATGTAT [CACACA_site4871]”, the “gcPBM binding intensity (ln)” value was found to be 8.34 ± 0.36.

For the sequence “AATGTAGTTTATCGATGTACACAAAATAAAGAGAAG [XGTACX_site6956]”, the “gcPBM binding intensity (ln)” value was 9.21 ± 0.31.

Consider “AATATAAATATAAATATAAATAAATAAATAAATAAA [CACACA_negctrl_site291]”, for which the “gcPBM binding intensity (ln)” value turned out to be 8.61 ± 0.18.

On to “GTAATTTTTTTCTATACACACATATATATAATATAT [CACACA_site2655]”, for which the “gcPBM binding intensity (ln)” value was found to be 8.74 ± 0.32.

As to “AAAGTAAAAGGGTTTGGTACACATATAATATATTAG [XGTACX_site6036]”, the “gcPBM binding intensity (ln)” value was 8.77 ± 0.46.

On to “AGTAAAAGAAAGCACACACACATGTATTTATGTATG [CACACA_site5998]”, for which the “gcPBM binding intensity (ln)” value stood at 8.37 ± 0.42.

As for “ATAACTTTTATTTGTACACACATACATCTATATTAT [CACACA_site6595]”, the “gcPBM binding intensity (ln)” value turned out to be 9.1 ± 0.39.

For the sequence “CATTTATATAAAGAATGTACACACAGAAATGCACAC [XGTACX_site4718]”, the “gcPBM binding intensity (ln)” value turned out to be 8.84 ± 0.35.

Turning to “CCTTGTCTTTTTTTTTTTTTTTTTTCTTCTTATTTT [GTGCAC_negctrl_site523]”, the “gcPBM binding intensity (ln)” value came to 8.56 ± 0.5.

As to “ATAAAATAAGACAAAAAAAAAATATATATATATATA [TGCATGCA_negctrl_site314]”, the “gcPBM binding intensity (ln)” value is 9.99 ± 0.37.

On to “AAAAAAAAAAAAAAATGTACATATATATATATATTA [XGTACX_site7330]”, for which the “gcPBM binding intensity (ln)” value is 8.34 ± 0.45.

Turning to “AGTAGATATAATATATGTACATATATATATATATAT [XGTACX_site7186]”, the “gcPBM binding intensity (ln)” value was 10.1 ± 0.34.

As for “AATTAATGGTTAAAGGTGCACAATACATATATTACA [GTGCAC_site9943]”, the “gcPBM binding intensity (ln)” value worked out at 9.57 ± 0.45.

Consider “ATATTAAACAAACACACACACATATATATATATATA [CACACA_site3383]”, for which the “gcPBM binding intensity (ln)” value turned out to be 10.2 ± 0.26.

As to “TGCATATACTCAAGCACACATATATATATATATATA [CACACA_site4733]”, the “gcPBM binding intensity (ln)” value came to 10.2 ± 0.33.

As for “TTTTTTTTTTTTTTTTTTTTTTTTTTTTTTTGGGGG [CACACA_negctrl_site1570]”, the “gcPBM binding intensity (ln)” value came to 9.13 ± 0.49.
